Test results published in PubChem BioAssay AID2101 (National Center for Advancing Translational Sciences (NCATS), 2009).
Values joined by “and” are separate entries in the source; they are usually repeats but may differ in a detail not shown here. Identical values can stand only once. Out of some 330,000 compounds screened, about 300 (0.091%) were called active. Another 4% or so got no clear call; they are omitted. Calls follow the shape of the dose curve; as a rule, active = well fitted inhibition curve with a large enough effect; inconclusive = small, poorly fitted or top-dose-only effect, or effect the other way, or another doubt; inactive = no such curve, though single readings can be large or run the other way. The entries are a selection whose mix differs from that of the whole data set.

target: Lysosomal acid glucosylceramidase (Homo sapiens) (UniProt P04062); test: qHTS Assay for Inhibitors and Activators of N370S glucocerebrosidase as a Potential Chaperone Treatment of Gaucher Disease; conditions: N370S GC spleen homogenate, 4MU-glucoside fluorescence; series mostly up to 59.4 µM; activity change, negative = inhibition: at the top concentration;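 as to activity change, negative = inhibition: 0% = full enzyme activity and -100% = no enzyme basal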
Potency is read from the fitted curve at half-maximal effect.

Activity change, negative = inhibition, inactive:
C[C@H]1O[C@@H](n2cc(F)c(=O)[nH]c2=O)[C@H](O)[C@@H]1O 2.82%, OC(c1cc(C(F)(F)F)nc2c(C(F)(F)F)cccc12)C1CCCCN1 (configuration not stated) -17.5%, COc1c(O)cc2oc(-c3ccc(O)cc3)cc(=O)c2c1O -15.6%, CC1OC(n2cc(F)c(=O)[nH]c2=O)C(O)C1O (configuration not stated) 0.197%, CCCCN(CCCC)CCC(O)c1cc2c(Cl)cc(Cl)cc2c2cc(C(F)(F)F)ccc12 (configuration not stated) -7.36% [at 21.6 µM], CN1[C@@H]2CC[C@H]1CC(OC(=O)c1c[nH]c3ccccc13)C2 (some centres not stated) -6.83%, O=C1CN(/N=C/c2ccc(-c3ccc([N+](=O)[O-])cc3)o2)C(=O)N1 -6.76%, C[C@@H](CN1c2ccccc2Sc2ccccc21)N(C)C -2.22% [at 21.6 µM], CC1(C)S[C@@H]2[C@H](NC(=O)[C@H](C(=O)O)c3ccsc3)C(=O)N2[C@H]1C(=O)O -1.61% [at 21.6 µM], c1cncc(-c2nc(NCc3cccs3)c3ccccc3n2)c1 -24.1%, c1ccc(C2[C@H]3CN(Cc4cccnc4)[C@H](c4ccccc4)C34CC2(c2cccnc2)C4)cc1 (some centres not stated) -13%, O=C1c2ccccc2C(=O)C1c1ccc2ccccc2n1 0.192%, CC(C)C[C@H](NC(=O)c1[nH]cnc1C(=O)N[C@@H](C)c1ccccc1)C(=O)OC(C)(C)C 16.7%, OC(COc1cccc2ccccc12)CN1CCN(c2ccc(Cl)cc2)CC1 (configuration not stated) -0.0516%, Cc1ccc(CN2CCN(/N=C\C(Br)=C\c3ccccc3)CC2)cc1 -21.2%, O=C(Nc1cccc(Cl)c1)OCCN1CCN(Cc2ccccc2)CCC1=O -24.5%, COC(=O)[C@H](C)[C@@H]1C[C@@]1(C)[C@@H](NC(=O)OCc1ccccc1)c1ccccc1 -3.14%, COc1cc2c(cc1O)CCC1C2CC[C@@]2(C)C1CC[C@@H]2O (some centres not stated) -7.58%, CC1C(=O)OC2C(O)C34C5CC(C(C)(C)C)C36C(OC(=O)C6O)OC4(C(=O)O5)C12O (configuration not stated) -3.94%, COc1ccc(C[C@H]2CN3C(=NC[C@H]3Cc3ccccc3)N2CCNC(=O)c2ccc(C)c(Br)c2)cc1 -28.8%, O=C(Nc1ccccc1)C1=C[C@@H](c2coc3ccccc3c2=O)C[C@@H](OCc2ccc(CO)cc2)O1 11.5%, COc1cccc2c1[C@@H]1CN(CCCCn3c(=O)[nH]c4c(sc5ncc(-c6ccccc6)nc54)c3=O)C[C@@H]1CO2 -9.93%, O=C(NC1CC1)C1=C[C@H](C2CCCCC2)C[C@H](OCc2ccc(CO)cc2)O1 10.7%, O=C(OC[C@H]1O[C@@H](OC(=O)c2cc(O)c(O)c(OC(=O)c3cc(O)c(O)c(O)c3)c2)[C@H](OC(=O)c2cc(O)c(O)c(OC(=O)c3cc(O)c(O)c(O)c3)c2)[C@@H](OC(=O)c2cc(O)c(O)c(OC(=O)c3cc(O)c(O)c(O)c3)c2)[C@@H]1OC(=O)c1cc(O)c(O)c(OC(=O)c2cc(O)c(O)c(O)c2)c1)c1cc(O)c(O)c(OC(=O)c2cc(O)c(O)c(O)c2)c1 -9.94%, COc1cc(C(CC(=O)N2CCN(c3ccccc3)CC2)c2c(OC)cc(OC)c3ccc(=O)oc23)cc(OC)c1OC (configuration not stated) 3.67%, O=C(O)c1cc(-c2ccco2)nc2ccccc12 17.3%, COc1cc(C2Oc3cc(C4Oc5cc(O)cc(O)c5C(=O)C4O)ccc3OC2CO)ccc1O (configuration not stated) -15.4%, CCCC[C@@H]1C[C@H]1[C@@H](NC(=O)c1ccco1)c1ccc(Cl)cc1 2.44%, O=C(C1=C[C@H](c2csc3ccccc23)C[C@H](OCc2ccc(CO)cc2)O1)N1CCN(Cc2ccc3c(c2)OCO3)CC1 -15.5%, NCCCC[C@H]1NC(=O)[C@H](CCC(=O)O)NC(=O)c2cc([N+](=O)[O-])cc(I)c2OCC[C@@H](C(N)=O)NC1=O 6.19%, Cc1ccc(NC(=O)OCCN2CCN(Cc3ccccc3)CCC2=O)cc1C -11.2%

Potency, active:
COc1cc(CNCCc2c[nH]c3ccccc23)ccc1OCc1ccc(F)cc1 15.8 µM, NC(N)=N/N=C/c1ccc(OCc2ccccc2)c(OCc2ccccc2)c1 11.2 µM, c1csc(CNc2nc(-c3cccs3)nc3ccccc23)c1 17.8 µM, NC(=NCCCCCCN=C(N)/N=C(\N)Nc1ccc(Cl)cc1)/N=C(\N)Nc1ccc(Cl)cc1 1.58 µM and 6.31 µM, O=C(NCCN1CCOCC1)c1ccc2c(c1)N(Cc1ccccc1F)C(=O)c1ccccc1S2 10 µM, Cc1ccc(NS(=O)(=O)c2ccc(N3CCN(c4ccc(O)cc4)CC3)c([N+](=O)[O-])c2)c(C)c1 14.1 µM, CCOc1ccc(N(CC(=O)Nc2ccccc2F)S(=O)(=O)c2c(C)[nH]c(=O)[nH]c2=O)cc1 3.16 µM, COc1cc(Cl)ccc1NC(=S)N(CCCN1CCOCC1)Cc1cn(C)c2ccccc12 7.08 µM, CC(C)(C)C(=O)OCCNc1nc(-c2ccccc2)nc2ccccc12 0.891 µM, C#CCOCCOCCOCCNc1nc(N2CCN(C(=O)CCCCCCCCCCNC(=O)Cn3cc(C[C@@H](C)O)nn3)CC2)nc(N2CCN(C(=O)CCCCCCCCCCNC(=O)[C@H](CCCCN)n3cc(C[C@@H](C)CC)nn3)CC2)n1 22.4 µM, COc1cccc(-c2nccc(NCc3cccs3)n2)c1 3.98 µM, CCOc1ccc(N(CC(=O)Nc2ccc(C)c(C)c2)S(=O)(=O)c2c(C)[nH]c(=O)[nH]c2=O)cc1 7.08 µM, Oc1cccc(Nc2nc(-c3ccccc3)nc3ccccc23)c1 2.82 µM, CCOc1ccccc1CNc1ccc(O)cc1 5.62 µM

Potency, inactive:
C[C@H](CO)NC(=O)[C@H](C)[C@@H]1C[C@@]1(C)[C@@H](NC(=O)OCc1ccccc1)c1ccccc1, CNCCCC12CCC(c3ccccc31)c1ccccc12, COC(=O)[C@H]1[C@H]2C[C@H]3c4[nH]c5ccccc5c4CCN3C[C@@H]2CC[C@@H]1O, CN(C)CCCN1c2ccccc2Sc2ccccc21, Cc1cc(C(C)(C)C)c(O)c(C)c1CC1=NCCN1, NC(=NCc1ccccc1)NC(=O)c1nc(Cl)c(N)nc1N, COC(=O)[C@H](Cc1ccccc1)NC(=O)O[C@H]1C(=O)c2cc(OC)ccc2O[C@@H]1c1ccc(OC)c(Br)c1
